# Assay results taken from the supplement of paper PMC10037445.
# Whole data set: some 2,900 compounds, median “IRF Lucia reporter activity, fold change vs agonist alone” near 0.9, cut for the highest 2% near 2.8. The list shows a part of the results.
# Tests used:
# RAW-Dual [1] = assay: IRF Lucia reporter activity, fold change vs agonist alone; cytotoxicity flag (confluency mask): not cytotoxic; higher = enhanced IRF activity
# How it was run: (§1)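 Supernatant from RAW-Dual macrophages was read after 20 hours for IRF by QuantiLuc luminescence and for NF-κB by QuantiBlue absorbance at 620 nm. The cells (50,000 cells/well in DMEM, 384-well plates, 37 °C, 5% CO2) had received 50 nL of library stock by pin tool and, 1 h later, a PRR agonist. Reporter activity is expressed relative to agonist-alone wells as fold change, and wells were flagged cytotoxic if IncuCyte confluency was under 70% of agonist controls in both mask sets.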
# RAW-Dual [2] = assay: IRF Lucia reporter activity, fold change vs agonist alone; higher = enhanced IRF activity; conditions: agonist: MPLA (TLR4) […]
# How it was run: as §1
# RAW-Dual [3] = assay: IRF Lucia reporter activity, fold change vs agonist alone; cytotoxicity flag (confluency mask): cytotoxic (confluency <70% of control); higher = enhanced IRF activity
# How it was run: as §1
# [4] = agonist: 3'3'-cGAMP (STING) 10 ug/mL
# [5] = library stock concentration (final ~1000-fold dilution): 10 mM, cytotoxicity flag (confluency mask): not cytotoxic
structure (smiles),measurement,setting,value
CC1(O)CC(c2nc(-c3ccc4ccc(-c5ccccc5)nc4c3)c3c(N)nccn23)C1 (configuration not stated) (library stock concentration (final ~1000-fold dilution): 10 mM),IRF Lucia reporter activity,RAW-Dual [1]; [4],0.194
same,IRF Lucia reporter activity,RAW-Dual [1]; agonist: LPS (TLR4) 0.1 ug/mL,0.826
CC1(O)CC(c2nc(-c3ccc4ccc(-c5ccccc5)nc4c3)c3c(N)nccn23)C1 (configuration not stated),IRF Lucia reporter activity,RAW-Dual [2]; [5],0.759
CNC(=O)Nc1ccc(-c2nc(N3CC4CCC(C3)O4)c3cnn(C4CCC5(CC4)OCCO5)c3n2)cc1 (library stock concentration (final ~1000-fold dilution): 10 mM),IRF Lucia reporter activity,RAW-Dual [1]; [4],1.01
same,IRF Lucia reporter activity,RAW-Dual [1]; agonist: LPS (TLR4) 0.1 ug/mL,0.646
CNC(=O)Nc1ccc(-c2nc(N3CC4CCC(C3)O4)c3cnn(C4CCC5(CC4)OCCO5)c3n2)cc1,IRF Lucia reporter activity,RAW-Dual [2]; [5],0.992
CC(C)n1c(C=CC(O)CC(O)CC(=O)O)c(-c2ccc(F)cc2)c2ccccc21 (configuration not stated),IRF Lucia reporter activity,RAW-Dual [2]; [5],0.762
CC(C)n1c(C=CC(O)CC(O)CC(=O)O)c(-c2ccc(F)cc2)c2ccccc21 (configuration not stated) (library stock concentration (final ~1000-fold dilution): 10 mM),IRF Lucia reporter activity,RAW-Dual [1]; [4],0.384
same,IRF Lucia reporter activity,RAW-Dual [1]; agonist: LPS (TLR4) 0.1 ug/mL,0.847
COc1cc(Nc2ncc(F)c(Nc3ccc4c(n3)N(COP(=O)(O)O)C(=O)C(C)(C)O4)n2)cc(OC)c1OC (library stock concentration (final ~1000-fold dilution): 10 mM),IRF Lucia reporter activity,RAW-Dual [1]; [4],1.01
same,IRF Lucia reporter activity,RAW-Dual [1]; agonist: LPS (TLR4) 0.1 ug/mL,0.0245
COc1cc(Nc2ncc(F)c(Nc3ccc4c(n3)N(COP(=O)(O)O)C(=O)C(C)(C)O4)n2)cc(OC)c1OC,IRF Lucia reporter activity,RAW-Dual [2]; [5],1.05
Cn1cc(C=C2C(=O)Nc3cccnc32)c2ccccc21 (library stock concentration (final ~1000-fold dilution): 10 mM),IRF Lucia reporter activity,RAW-Dual [1]; [4],0.515
same,IRF Lucia reporter activity,RAW-Dual [1]; agonist: LPS (TLR4) 0.1 ug/mL,0.452
Cn1cc(C=C2C(=O)Nc3cccnc32)c2ccccc21,IRF Lucia reporter activity,RAW-Dual [2]; [5],0.761
CN1CCN(CCCN2c3ccccc3Sc3ccc(Cl)cc32)CC1.O=C(O)/C=C\C(=O)O.O=C(O)/C=C\C(=O)O (library stock concentration (final ~1000-fold dilution): 10 mM),IRF Lucia reporter activity,RAW-Dual [3]; [4],0.64
same,IRF Lucia reporter activity,RAW-Dual [3]; agonist: LPS (TLR4) 0.1 ug/mL,0.589
CN1CCN(CCCN2c3ccccc3Sc3ccc(Cl)cc32)CC1.O=C(O)/C=C\C(=O)O.O=C(O)/C=C\C(=O)O,IRF Lucia reporter activity,"RAW-Dual [2]; library stock concentration (final ~1000-fold dilution): 10 mM, cytotoxicity flag (confluency mask): cytotoxic (confluency <70% of control)",0.883
O=c1c2cc(O)c(O)cc2oc2cc(O)c([C@@H]3O[C@H](CO)[C@@H](O)[C@H](O)[C@H]3O)c(O)c12 (library stock concentration (final ~1000-fold dilution): 10 mM),IRF Lucia reporter activity,RAW-Dual [1]; [4],0.991
same,IRF Lucia reporter activity,RAW-Dual [1]; agonist: LPS (TLR4) 0.1 ug/mL,0.946
COc1ccccc1O (library stock concentration (final ~1000-fold dilution): 10 mM),IRF Lucia reporter activity,RAW-Dual [1]; [4],0.882
same,IRF Lucia reporter activity,RAW-Dual [1]; agonist: LPS (TLR4) 0.1 ug/mL,1.09
CNC1C(O)C(OC2C(NC(=O)C(O)CN)CC(N)C(OC3OC(CN)C(O)C(O)C3O)C2O)OCC1(C)O.O=S(=O)(O)O (configuration not stated) (library stock concentration (final ~1000-fold dilution): 10 mM water),IRF Lucia reporter activity,RAW-Dual [1]; [4],1.07
same,IRF Lucia reporter activity,RAW-Dual [1]; agonist: LPS (TLR4) 0.1 ug/mL,1.05
CNC1C(O)C(OC2C(NC(=O)C(O)CN)CC(N)C(OC3OC(CN)C(O)C(O)C3O)C2O)OCC1(C)O.O=S(=O)(O)O (configuration not stated),IRF Lucia reporter activity,"RAW-Dual [2]; library stock concentration (final ~1000-fold dilution): 10 mM water, cytotoxicity flag (confluency mask): not cytotoxic",1.25
COc1cc(CCC(C)=O)ccc1O (library stock concentration (final ~1000-fold dilution): 10 mM),IRF Lucia reporter activity,RAW-Dual [1]; [4],0.901
same,IRF Lucia reporter activity,RAW-Dual [1]; agonist: LPS (TLR4) 0.1 ug/mL,0.996
O=C1N=C(NCc2cccs2)S/C1=C\c1ccc2ncccc2c1 (library stock concentration (final ~1000-fold dilution): 10 mM),IRF Lucia reporter activity,RAW-Dual [1]; [4],0.427
same,IRF Lucia reporter activity,RAW-Dual [1]; agonist: LPS (TLR4) 0.1 ug/mL,0.318
CC(=O)OC1CC2CCC3C(CCC4(C)C3CC([N+]3(C)CCCCC3)C4OC(C)=O)C2(C)CC1N1CCCCC1 (configuration not stated) (library stock concentration (final ~1000-fold dilution): 10 mM),IRF Lucia reporter activity,RAW-Dual [1]; [4],0.993
same,IRF Lucia reporter activity,RAW-Dual [1]; agonist: LPS (TLR4) 0.1 ug/mL,1.2
CC(=O)OC1CC2CCC3C(CCC4(C)C3CC([N+]3(C)CCCCC3)C4OC(C)=O)C2(C)CC1N1CCCCC1 (configuration not stated),IRF Lucia reporter activity,RAW-Dual [2]; [5],1.02
Cc1c[nH]c2nc(Nc3ccc(N4CCN(C)CC4)c(F)c3)nc(-c3cccc(CC#N)c3)c12 (library stock concentration (final ~1000-fold dilution): 10 mM),IRF Lucia reporter activity,RAW-Dual [3]; [4],0.00805
same,IRF Lucia reporter activity,RAW-Dual [3]; agonist: LPS (TLR4) 0.1 ug/mL,0.0101
COc1cnc(NS(=O)(=O)c2ccc(N)cc2)nc1,IRF Lucia reporter activity,RAW-Dual [2]; [5],0.961
COc1cnc(NS(=O)(=O)c2ccc(N)cc2)nc1 (library stock concentration (final ~1000-fold dilution): 10 mM),IRF Lucia reporter activity,RAW-Dual [1]; [4],1.08
same,IRF Lucia reporter activity,RAW-Dual [1]; agonist: LPS (TLR4) 0.1 ug/mL,0.941
C=CC(=O)N1CCN(CCCn2c(=O)c(-c3c(Cl)c(OC)cc(OC)c3Cl)cc3cnc(NC)nc32)CC1 (library stock concentration (final ~1000-fold dilution): 10 mM),IRF Lucia reporter activity,RAW-Dual [1]; [4],0.583
same,IRF Lucia reporter activity,RAW-Dual [1]; agonist: LPS (TLR4) 0.1 ug/mL,0.664
COc1cc(C2c3cc4c(cc3C(OC3OC5COC(C)OC5C(O)C3O)C3COC(=O)C23)OCO4)cc(OC)c1O (configuration not stated),IRF Lucia reporter activity,RAW-Dual [2]; [5],0.943
COc1cc(C2c3cc4c(cc3C(OC3OC5COC(C)OC5C(O)C3O)C3COC(=O)C23)OCO4)cc(OC)c1O (configuration not stated) (library stock concentration (final ~1000-fold dilution): 10 mM),IRF Lucia reporter activity,RAW-Dual [1]; [4],0.618
same,IRF Lucia reporter activity,RAW-Dual [1]; agonist: LPS (TLR4) 0.1 ug/mL,0.92
